Results: paper PMC12136788
The other results are listed elsewhere or left out.

B1: chr3:9757346:9757621:-|three_prime_utr|ENSG00000134072|control|control|control (ssRNA)
RNA: GGGAGUUCUACAGUCCGACGAUCGUCGAGACUGCUGCGUGGAGCCGGGCACAGAACUGUCCCCCACACUGCCCCACCAGCUCUAGGGCCCUGGACCUCGGGUCAUGAUCCUCUGCGUGGGAGGGCUUGGGGGCAGCCUGCUCCCAACAGAGGAUUGAGCAUCA
B2: chr4:186618492:186618593:-|CDS|ENSG00000083857|msi1|FALSE|unique (ssRNA)
RNA: GGGAGUUCUACAGUCCGACGAUCGUAAUCACUACAAAGGAGAGCCUCAUUGGCUUGGAAAAUGAAUUCUUCACUUUCUUUGUUAGAGCUGUGGAUAAUGGGUCUCCAUCAAAAGAAUCUGUUGUUCUUGUCUAUGUUAAAAUCCAACAGAGGAUUGAGCAUCA
B3: chr1:113590523:113590624:+|CDS|ENSG00000081026|unk|total|mutant (ssRNA)
RNA: GGGAGUUCUACAGUCCGACGAUCUCAUCUGACUGGAUGAAGACUGUUCCAAGUUACAACCAAACAAACCGCUCCAUGGACUUCCGAAAUUAUAUGAUGAGAGAUGAGACUCUGGAACCACUGCCCAAAAACUGGGAAAUGGCCCAACAGAGGAUUGAGCAUCA
B4: chr12:48147896:48148005:-|3pUTR|ENSG00000177981|unk|total|mutant (ssRNA)
RNA: GGGAGUUCUACAGUCCGACGAUCCUGCUUCCGUGAACGAUACUCUUUCAUUUUUCUAAAUCCGAUCAAGUUGUUAUUGAUUUCCGAUGACUUGUAUGCAAAUUUGAAAAACUUUUUUUUUUAAAGCUGAUUGGGAACUACAAACAACAGAGGAUUGAGCAUCA
B5: chr15:89832191:89832292:-|3pUTR|ENSG00000157823|msi1|total|mutant (ssRNA)
RNA: GGGAGUUCUACAGUCCGACGAUCCCCGGCCGCUGGAACCACAGGCACGCAACCACCACUCCUGGCCCGUUUUAUUUUUUCCGCCGAAUAAGGUCUCACUAUGUUGCACAGGCUGGUCUCUAACUCCUUACCUCAAGCCAUCCUCAACAGAGGAUUGAGCAUCA
B6: chr1:86742159:86742388:+|CDS|ENSG00000097033|unk|total|mutant (ssRNA)
RNA: GGGAGUUCUACAGUCCGACGAUCUGUACCAUCAGUUUUACCAAAUGCGAUUGGUUCUUCUGCCAUGGCUUCAACAAGUGGCCCCGUAAUCACCUCUCCUUCCAACCUCAGUGACCUUAAGGAGUGCCGUGGCAGCAGAAAGGCCAACAGAGGAUUGAGCAUCA
B7: chr8:143040838:143043334:-|three_prime_utr|ENSG00000291309|control|control|control (ssRNA)
RNA: GGGAGUUCUACAGUCCGACGAUCACCACUUUUUUCAGAGCUGGGCCUCAGAGACCAGGCCCCACCACUGGCUGCUUGGGACCUAGGGUCAUAGAGAAACCGUGGCCCAGGGCGGGAGUCCCCAGCUCCAUCCAGCUUGCCACUCAACAGAGGAUUGAGCAUCA
B8: chr15:41517175:41517691:-|three_prime_utr|ENSG00000103932|control|control|control (ssRNA)
RNA: GGGAGUUCUACAGUCCGACGAUCGUCAGCACUACCUCCAGAGACUGACUUCAACAGUGCUCCAAAAUGGGGUAUCAGAGACCUAGGAUAGUUGAUAUAGAUGGAAAGAUGGGUACGUUGUCCUGUAUCCAGCCUUUCAACAGACAACAGAGGAUUGAGCAUCA
B9: chr22:46256563:46263322:-|CDS|ENSG00000130943|control|control|control (ssRNA)
RNA: GGGAGUUCUACAGUCCGACGAUCAAUUCGGUUUUACUUGUCGAACCCAGAAGACUUCAUUCCCUUUCAUGCAGUUUCUCAGGUAGAUCACAUUAUGAGGAUAAUUUUGGGUUUCCUGUUAUUUCUGACAAUUUUGAAGACCCUCAACAGAGGAUUGAGCAUCA
B10: ENSG00000107863:be:win_1001|CDS|ENSG00000107863|bound_else_gene|NA|bound_elsewhere_windowed (ssRNA)
RNA: GGGAGUUCUACAGUCCGACGAUCCAGGCUCCAGAUCACUGGAACCUUCUGGAAUUUUACUUAAGUCUGGAAAUUACAGUGGACAUUCUGAUGGAAUCUCAAGCAGCAGAUCUCAAGCUGUGGAGGCUCCCUCUGUAUCUGUUACAACAGAGGAUUGAGCAUCA
B11: chr11:20121310:20121411:+|3pUTR|ENSG00000166833|msi1|total|mutant (ssRNA)
RNA: GGGAGUUCUACAGUCCGACGAUCAUUGUAACACCGAAAUUGUAAAUAAUUGAUUAAAGUGCUGCAUUUUGAUGAAUUUUUUCCCGCCAUUUUUAAAGAGAAAACCCGGAAUUGAGUAUUUUGUGUACGGUAUGUUUCCAUCCUCAACAGAGGAUUGAGCAUCA
B12: chrX:65741840:65741941:+|3pUTR|ENSG00000147065|msi1|total|mutant (ssRNA)
RNA: GGGAGUUCUACAGUCCGACGAUCAAAUUGUUUUUGGAGGGGUUUAUGCUCAAUCCAUGUUCUAUUUCAGUGCCAAUAAAAUUCCGGAAGACUUCACAGUGACUCAAUCGUUCUUUGUGGUAUGAGUGGGCCGCUGUAAGAUAUCAACAGAGGAUUGAGCAUCA
B13: chr3:170361105:170361226:+|CDS|ENSG00000136603|unk|FALSE|bound_elsewhere (ssRNA)
RNA: GGGAGUUCUACAGUCCGACGAUCAAGCUCAUUGGCCCAGUUAAAGGAAACUGGCAGUGCCUUUGAAGUGGAGCAUGAAUGCCUAGGCAAAUGUCAGGGUUUAUUUGCACCCCAGUUUUAUGUUCAGCCUGAUGCUCCGUGUAUCAACAGAGGAUUGAGCAUCA
B14: chrX:52062232:52062664:-|CDS|ENSG00000187243|control|control|control (ssRNA)
RNA: GGGAGUUCUACAGUCCGACGAUCGGCCACGUGGAGAGCUGGCGUCAGCAGUGGCACCAAUGGAGGGGCCAGCACCAGCGUCCUAGAUGGCCCCAGCACCAGCUCCACCAUCCGGACCAGAAAUGCUGCCAGAGCUGGCGCCAGCAACAGAGGAUUGAGCAUCA
B15: chr22:39520512:39520623:+|5pUTR|ENSG00000128272|unk|FALSE|bound_elsewhere (ssRNA)
RNA: GGGAGUUCUACAGUCCGACGAUCUCUAUAAAGGGCCGGCGGGCGGCCACGGCAGCCAUUUCUACUUUGCCCGCCCACAGAUGUAGUUUUCUCUGCGCGUGUGCGUUUUCCCUCCUCCCCGCCCUCAGGGUCCACGGCCACCAUCAACAGAGGAUUGAGCAUCA
B16: ENSG00000070961:be:win_3351|CDS|ENSG00000070961|bound_else_gene|NA|bound_elsewhere_windowed (ssRNA)
RNA: GGGAGUUCUACAGUCCGACGAUCGAUUCGAGUGGUGAAUGCAUUUCGUAGUUCUUUAUAUGAAGGGUUAGAAAAACCGGAAUCAAGAAGUUCGAUUCACAACUUUAUGACACAUCCUGAGUUUAGGAUAGAAGAUUCAGAGCCCAACAGAGGAUUGAGCAUCA
B17: ENSG00000070961:be:win_3751|3pUTR|ENSG00000070961|bound_else_gene|NA|bound_elsewhere_windowed (ssRNA)
RNA: GGGAGUUCUACAGUCCGACGAUCUAUUCUUGUCUUUGGACUUCAACAGAAGACACACUUGUACGAAUGUAGAUUUAUUUUUUUAAAAAAAAAAAAGCAAAGCUUUCUGCCAGACUGAGGGUGCUUUUUGGGGGGUGGGAGAAACAACAGAGGAUUGAGCAUCA
B18: ENSG00000136451:be:win_1251|CDS|ENSG00000136451|bound_else_gene|NA|bound_elsewhere_windowed (ssRNA)
RNA: GGGAGUUCUACAGUCCGACGAUCAGUGGCAGCUGCAAUGAGCAUGAGAAGUCCAGUAAAUGUUUCAAGUGCAGUUAACAUAACCAGCCCAAUGAACAUAGGGCAUCCUGUAACUAUAACCAGUCCAUUAUCCAUGACCUCUCCCAACAGAGGAUUGAGCAUCA
B19: chr2:135840511:135840612:-|3pUTR|ENSG00000076003|msi1|FALSE|unique (ssRNA)
RNA: GGGAGUUCUACAGUCCGACGAUCGCUUCAGCACUUCCUUUGGUGUGUUUCCUGUCCCAGUGAAGUUGGAACCAAAUAAUGUGUAGUCUCUAUAACCAAUACCUUUGUUUUCAUGUGUAAGAAAAGGCCCAUUACUUUUAAGGUCAACAGAGGAUUGAGCAUCA
B20: chrX:53432280:53432385:-|CDS|ENSG00000072506|unk|total|mutant (ssRNA)
RNA: GGGAGUUCUACAGUCCGACGAUCUGAGAAGGAUGUGCAAACAGCUCUGGCUCCCGCAAAAGGAAAGUUUGGCCGUGUGGAUGCCGCUGUCAACUGUGCAGGCAUCGCGGUGGCCCGCAAGACGUACAACUUAAAGAAGGGCCACAACAGAGGAUUGAGCAUCA
B21: chr11:134382709:134383006:-|CDS|ENSG00000109956|control|control|control (ssRNA)
RNA: GGGAGUUCUACAGUCCGACGAUCCGGGGCAGGGAAGGUGGUCGGCUGGAAGACGGUGUUUGACCCCCACCGGCCAUUUGCAAUAGACAUGGCUGGAUUUGCCGUCAACCUGCGGCUCAUUCUGCAGCGAAGCCAGGCCUACUUCAACAGAGGAUUGAGCAUCA
B22: chr5:173316791:173316892:-|3pUTR|ENSG00000113739|msi1|FALSE|unique (ssRNA)
RNA: GGGAGUUCUACAGUCCGACGAUCGGAAACCUUAUACCCAGAGGAAAAUACACACCUGGGGAGUACAUUUGACAAAUUUCCCUUAGGAUUUCGUUAUCUCACCUUGACCCUCAGCCAAGAUUGGUAAAGCUGCGUCCUGGCGAUCAACAGAGGAUUGAGCAUCA

molecular target: T1, UNK ZnF1-6 (called full-length) (human, UniProt Q9C0B0 30-357); assay: nsRBNS (natural sequence RNA bind-n-seq); RBNS binding buffer (assumed for nsRBNS): 25 mM Tris pH 7.5, 150 mM KCl, 3 mM MgCl2, 0.01% Triton X-100, 500 ug/ml BSA, 20 U/ml SUPERase-In, 4 C; UNK is unkempt and MSI1 is Musashi-1; names of the RNAs are library labels; protein concentration not given here; high values mean tight binding
T1 sequence: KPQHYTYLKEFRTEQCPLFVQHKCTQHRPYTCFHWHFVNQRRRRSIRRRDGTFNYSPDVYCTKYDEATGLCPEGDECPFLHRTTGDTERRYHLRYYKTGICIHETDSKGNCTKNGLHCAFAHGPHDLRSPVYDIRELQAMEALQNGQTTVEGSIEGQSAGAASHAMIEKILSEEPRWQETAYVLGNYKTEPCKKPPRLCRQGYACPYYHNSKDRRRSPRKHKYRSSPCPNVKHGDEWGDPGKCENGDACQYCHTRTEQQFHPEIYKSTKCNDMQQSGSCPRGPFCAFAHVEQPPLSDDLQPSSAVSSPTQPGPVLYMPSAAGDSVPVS

Q: Which binding signal does the source give for B1 here?
A: Its binding signal is 1.07 enrichment R.

Q: How did the binding signal turn out when B2 was run?
A: Its binding signal is 0.487 enrichment R.

Q: With B3 as the binder, how does the binding signal read?
A: Its binding signal is 0.474 enrichment R.

Q: Which binding signal does the source give for B4 here?
A: Its binding signal is 0.502 enrichment R.

Q: B5 was tested. Which binding signal did it give?
A: Its binding signal is 0.904 enrichment R.

Q: Which binding signal does the source give for B6 here?
A: Its binding signal is 0.505 enrichment R.

Q: How did the binding signal turn out when B7 was run?
A: The binding signal was 0.706 enrichment R.

Q: Which binding signal does the source give for B8 here?
A: The binding signal was 1.32 enrichment R.

Q: How did the binding signal turn out when B9 was run?
A: Its binding signal is 0.376 enrichment R.

Q: How did the binding signal turn out when B10 was run?
A: The binding signal was 0.745 enrichment R.

Q: How did the binding signal turn out when B11 was run?
A: Its binding signal is 0.37 enrichment R.

Q: How did the binding signal turn out when B12 was run?
A: Its binding signal is 0.293 enrichment R.

Q: B13 was tested. Which binding signal did it give?
A: Its binding signal is 0.491 enrichment R.

Q: With B14 as the binder, how does the binding signal read?
A: Its binding signal is 0.667 enrichment R.

Q: For B15, which binding signal is on record?
A: Its binding signal is 0.915 enrichment R.

Q: Which binding signal does the source give for B16 here?
A: The binding signal was 0.389 enrichment R.

Q: For B17, which binding signal is on record?
A: Its binding signal is 1.39 enrichment R.

Q: For B18, which binding signal is on record?
A: Its binding signal is 0.534 enrichment R.

Q: With B19 as the binder, how does the binding signal read?
A: Its binding signal is 0.616 enrichment R.

Q: How did the binding signal turn out when B20 was run?
A: The binding signal was 0.624 enrichment R.

Q: How did the binding signal turn out when B21 was run?
A: The binding signal was 0.964 enrichment R.

Q: With B22 as the binder, how does the binding signal read?
A: The binding signal was 0.601 enrichment R.
